In PubChem BioAssay AID504706 (National Center for Advancing Translational Sciences (NCATS), 2011):
About 200 (0.062%) of roughly 320,000 compounds were called active. Inconclusive means that the source gave no clear call. Such entries were picked first, then a sample of the others. The call rests on the fitted dose curve; in most records, active means well fitted activation curve with a large enough effect; inconclusive means small, poorly fitted or top-dose-only effect; inactive means no such curve, though single readings can be large or run the other way. No potency is given beside an inconclusive call; the fits are too rough.

assay: qHTS assay for re-activators of p53 using a Luc reporter; conditions: H1299 p53-A138V BP100-luciferase reporter, luminescence, 24 h; series mostly up to 92.2 µM; further: nearly all actives have a fitted effect of over 45% in size
In short: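 H1299 (p53-null), stable ts p53-A138V + BP100-Luc; 1000 cells/well, Opti-MEM/10% FBS; cpd 4 pt, 1:5; 24 h, 37 deg C, 5% CO2; detection reagent 10 min RT; luminescence.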
Potency means the concentration at half of the fitted maximal effect; tags describe the fitted curve by direction and shape.

Q: With O=C(Nc1ccccc1)c1nc2ccccc2s1 as the compound, how does the Potency read?
A: Its Potency is inconclusive [activator, partial curve, poor fit].

Q: With Cn1sc(NC(=O)c2ccccc2)nc1=O as the compound, how does the Potency read?
A: The Potency was inconclusive [activator, single point].

Q: Which Potency does the source give for CN(C(=O)CSc1nnc(-c2n[nH]c3ccccc23)o1)c1ccccc1 here?
A: The Potency was inconclusive [activator, partial curve, poor fit].

Q: For CCCCCCc1nc(C(N)=O)c2[nH]c(=O)n(-c3ccccc3F)c2n1, which Potency is on record?
A: The Potency was “inactive”.

Q: With CC(C)(C)n1ncc2c(=O)n(CC(=O)NC3CCCCC3)cnc21 as the compound, how does the Potency read?
A: Its Potency is inconclusive [activator, partial curve, poor fit].

Q: Which Potency does the source give for CN(C)S(=O)(=O)c1ccc(S(=O)(=O)N2CCCC(C(=O)NC3CC3)C2)cc1 (stereo unspecified) here?
A: Its Potency is “inactive”.

Q: With CCC(=O)Nc1nc2cc(OC)ccc2s1 as the compound, how does the Potency read?
A: The Potency was inconclusive [activator, partial curve, poor fit].

Q: For O=C(Nc1nccs1)c1ncc(Cl)c(Cl)c1Cl, which Potency is on record?
A: Its Potency is inconclusive [activator, full curve, poor fit].

Q: Which Potency does the source give for C[C@@H](NC(=O)c1nc[nH]c1C(=O)N1CCN(c2ccccc2)CC1)c1ccccc1 here?
A: The Potency was inconclusive [activator, single point].

Q: Which Potency does the source give for COC(=O)c1ccc(NC(=O)COC(=O)c2cccc3c(=O)c(C)c(-c4ccccc4)oc23)cc1 here?
A: Its Potency is inconclusive [activator, partial curve, poor fit].

Q: Which Potency does the source give for Cc1nc(Nc2ccc(S(=O)(=O)N3CCCCC3C)cc2)c2nnn(Cc3ccccc3)c2n1 (stereo unspecified) here?
A: The Potency was “inactive”.

Q: With Cc1ccc(NC(=O)CCNS(=O)(=O)c2cc(Br)cnc2N)cc1Cl as the compound, how does the Potency read?
A: The Potency was “inactive”.

Q: For N/C(=N\OC(=O)COc1ccccc1Cl)c1ccccn1, which Potency is on record?
A: The Potency was inconclusive [activator, partial curve, poor fit].

Q: For CCOC(=O)C1=C(C)N(CC(C)C)C(=O)/C1=C\c1ccc(OCC(=O)Nc2ccccc2)cc1, which Potency is on record?
A: Its Potency is “inactive”.

Q: For Cc1c(-c2nc(N)nc(Nc3ccccc3F)n2)oc2ccccc12, which Potency is on record?
A: The Potency was inconclusive [activator, full curve, poor fit].

Q: For O=C(NCCSCc1ccco1)c1ccc(CN2CCOCC2)cc1, which Potency is on record?
A: Its Potency is inconclusive [activator, partial curve, poor fit].

Q: With Oc1ccc(CN2CCCCC2)c2cccnc12 as the compound, how does the Potency read?
A: The Potency was “inactive”.

Q: For N#CC(=C1CCCC1)c1nc(-c2ccccc2)cs1, which Potency is on record?
A: The Potency was inconclusive [activator, partial curve, poor fit].

Q: Which Potency does the source give for O=c1[nH]nc(SCCS(=O)(=O)c2ccc(F)cc2)n1-c1ccc2c(c1)OCCO2 here?
A: The Potency was inconclusive [activator, single point].

Q: With c1ccc(CSc2ccc(-c3ccc4c(c3)OCO4)nn2)cc1 as the compound, how does the Potency read?
A: Its Potency is inconclusive [activator, full curve, poor fit].

Q: Which Potency does the source give for O=C(OCC(=O)c1ccc[nH]1)c1cncc(Br)c1 here?
A: The Potency was inconclusive [activator, single point].

Q: For Cc1oc(-c2ccccc2Cl)nc1CS(=O)CC(=O)NC1CC1 (stereo unspecified), which Potency is on record?
A: Its Potency is “inactive”.

Q: Which Potency does the source give for Cc1cccc(-c2n[nH]c(=S)n2/N=C/c2ccc(C)s2)c1 here?
A: Its Potency is “inactive”.

Q: With CC(=O)Nc1ccc(C(=O)Cn2nnc3ccccc3c2=O)cc1 as the compound, how does the Potency read?
A: The Potency was inconclusive [activator, partial curve, poor fit].

Q: For O=c1c2cn[nH]c2[nH]c(=S)n1-c1ccccc1F, which Potency is on record?
A: Its Potency is inconclusive [activator, partial curve, poor fit].

Q: With CCCC(C)NC(=O)c1ccc(-c2ccccc2)cc1 (stereo unspecified) as the compound, how does the Potency read?
A: The Potency was “inactive”.

Q: Which Potency does the source give for O=C(Nc1ccncc1)Nc1ccc(F)cc1F here?
A: Its Potency is “inactive”.

Q: Which Potency does the source give for Cc1c(C(=O)N2CCC[C@H]2C(N)=O)oc2c(F)cccc12 here?
A: Its Potency is inconclusive [activator, partial curve, poor fit].

Q: Which Potency does the source give for O=C(NCCSc1ccccn1)c1ccc(Cl)cc1 here?
A: Its Potency is inconclusive [activator, partial curve, poor fit].

Q: For O=C(c1cc(-c2ccccc2)nc2ccccc12)N1CCCC1, which Potency is on record?
A: The Potency was “inactive”.

Q: With CC1CCCN(C(=O)CSCC(=O)Nc2nc(-c3cccs3)cs2)C1 (stereo unspecified) as the compound, how does the Potency read?
A: Its Potency is inconclusive [activator, full curve, poor fit].

Q: With O=C(NC(=S)Nc1cccc(CO)c1)c1ccc(-c2ccccc2)cc1 as the compound, how does the Potency read?
A: Its Potency is “inactive”.

Q: For COc1ccc(C(=O)Nc2nc(C)c(C)s2)cc1OC, which Potency is on record?
A: The Potency was inconclusive [activator, partial curve, poor fit].

Q: With O=C(N/N=C/c1ccccc1O)C1SCCCS1 as the compound, how does the Potency read?
A: Its Potency is “inactive”.

Q: For CCOC(=O)c1sc(-c2ccc(C(F)(F)F)cc2)nc1O, which Potency is on record?
A: Its Potency is “inactive”.

Q: For COc1ccc(C(O)(C2CCCCC2)C(CN2CCOCC2)c2ccccc2)cc1 (stereo unspecified), which Potency is on record?
A: Its Potency is “inactive”.

Q: Which Potency does the source give for COc1ccc(/C=C/C(=O)NC2CCS(=O)(=O)C2)cc1 (stereo unspecified) here?
A: The Potency was “inactive”.

Q: With CCOc1cc(CNCc2cccnc2)cc(Br)c1OCC(N)=O as the compound, how does the Potency read?
A: The Potency was inconclusive [activator, single point].

Q: With CCN(CC)CCCNC(=O)C1CCC(CNS(=O)(=O)c2c(C)cc(C)cc2C)CC1 (stereo unspecified) as the compound, how does the Potency read?
A: The Potency was inconclusive [activator, single point].

Q: For Cc1ccc(NC(=O)CCN2CCC(C)CC2)cc1, which Potency is on record?
A: The Potency was inconclusive [activator, single point].

Q: Which Potency does the source give for Cc1cccc2c1-c1sc(C(=O)Nc3nccs3)cc1CO2 here?
A: The Potency was inconclusive [activator, full curve, poor fit].

Q: Which Potency does the source give for c1ccc(-c2cc(-c3ccccc3)[nH]n2)cc1 here?
A: The Potency was inconclusive [activator, full curve, poor fit].

Q: For Cc1cccc(-n2ccnc2SCC(=O)Nc2nccs2)c1, which Potency is on record?
A: Its Potency is inconclusive [activator, partial curve, poor fit].

Q: Which Potency does the source give for CCOc1ccc(NC(=O)c2ccccc2OC)cc1 here?
A: Its Potency is inconclusive [activator, partial curve, poor fit].

Q: For Cc1ccc(C(=O)Nc2ccccc2C(=O)Nc2ccccn2)cc1Cl, which Potency is on record?
A: The Potency was inconclusive [activator, partial curve, poor fit].

Q: For CCN(CC)CCCNC(=O)CCC(=O)Nc1ccc2nc(N3CCC(C)CC3)cc(C)c2c1, which Potency is on record?
A: The Potency was inconclusive [activator, partial curve, poor fit].
